Data: PubChem BioAssay AID1347043 (National Center for Advancing Translational Sciences (NCATS), 2019)
Among all 76,000 compounds or so, about 1,900 (2.5%) were called active. The inconclusive results got no clear call from the source; some entries with a clear call stand among them for comparison. Calls come from the whole dose curve; as a rule, active = well fitted inhibition curve with a large enough effect; inconclusive = small, poorly fitted or top-dose-only effect; inactive = flat fitted curve, though single readings scatter. A potency beside an inconclusive call is a rough fit, not a confirmed value.

The molecules below were run against Luciferin 4-monooxygenase (Photinus pyralis) (UniProt P08659) (assay: Firefly luciferase inhibition profiling of diverse chemical library using quantitative high-throughput screening). Conditions: purified P. pyralis luciferase, luminescence, biochemical; series mostly up to 172 µM; activity change, negative = inhibition: at the top concentration.
UniProt P08659, sequence (P08659 whole entry, looked up): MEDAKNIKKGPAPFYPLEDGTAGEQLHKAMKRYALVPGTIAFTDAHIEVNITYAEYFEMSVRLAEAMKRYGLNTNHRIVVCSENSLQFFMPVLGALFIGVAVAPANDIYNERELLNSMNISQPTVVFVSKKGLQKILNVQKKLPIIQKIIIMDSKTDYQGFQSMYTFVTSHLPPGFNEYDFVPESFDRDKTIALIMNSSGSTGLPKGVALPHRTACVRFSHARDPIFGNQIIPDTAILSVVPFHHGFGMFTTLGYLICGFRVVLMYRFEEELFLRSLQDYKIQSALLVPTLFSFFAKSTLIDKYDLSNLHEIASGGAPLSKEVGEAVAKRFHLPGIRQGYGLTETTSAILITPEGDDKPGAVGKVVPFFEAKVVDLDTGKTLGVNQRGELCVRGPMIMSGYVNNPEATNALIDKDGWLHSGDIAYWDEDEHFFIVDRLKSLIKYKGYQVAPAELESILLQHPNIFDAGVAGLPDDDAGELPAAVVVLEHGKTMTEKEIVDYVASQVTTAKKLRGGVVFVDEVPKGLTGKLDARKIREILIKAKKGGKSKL
From the text: Firefly (Photinus pyralis) luciferase is one of the most commonly used transcriptional reporters for a number of reasons. It is considered one of the more dynamically responsive reporters - that is, responsive to changes in reporter transcription - as it requires no post-translational modifications and is enzymatically active directly after protein synthesis (Wood, 1998). Additionally, the half-life of the luciferase protein is short relative to other reporter-gene products (Wood, 1995). Whereas reporters with long half-lives potentially allow for increased signal due to accumulation of reporter-gene product, once accumulated in the cell, dynamic changes in reporter-gene expression may be difficult to detect(Fan and Wood, 2007; Almond et al., 2004). It has been shown that wild-type P. pyralis luciferase has a half-life of approximately four hours in mammalian cells (Thompson et al., 1991). Firefly luciferase reporter-gene assays are also generally considered one of the most sensitive assay types (Wood, 1995; Wood, 1998). Although light produced in a bioluminescence reaction is of lower intensity than that produced during fluorescence emission, this is offset by little to no background light inherent to luminescent assays. Thus the luciferase reporter can be expressed at much lower levels than fluorescent proteins while still providing robust signal. However, it was initially observed, in 1991, by Thompson et al., that compounds that resemble the substrates of firefly luciferase (FLuc) can act as competitive inhibitors of the enzyme, and that these compounds, upon interaction with luciferase in the cell, can actually stabilize the protein and increase its half-life. Accumulated intracellular FLuc protein can be measured as an increase in luminescence signal, upon addition of detection reagents (which contain high concentrations of FLuc substrates) commonly used in high-throughput screening. In cell-based reporter gene assays that use FLuc as the reporter gene to quantitate the potential influence of a given compound against the target biology, this apparent increase in luminescence can mistakenly be interpreted as identification of a compound that is active against the target of interest. FLuc inhibitory compounds that stabilize the FLuc protein will give an identical read-out, making it difficult to distinguish compounds that are active against the target from those active against FLuc. In summary, the results generated here constitutes a valuable resource for the scientific community and provides insight on identifying compounds with inhibitory activity for the commonly-used reporter, firefly luciferase. References: -Almond, B., Zdanovsky, A., Zdanovskaia, M., Ma, D., Stecha, P., Paguio, A., Garvin, D., and Wood, K. (2004). Introducing the Rapid Response Reporter Vectors. Promega Notes 87, 18-22. -Fan, F., and Wood, K.V. (2007). Bioluminescent assays for high-throughput screening. Assay Drug Dev Technol 5, 127-136. -Thompson, J.F., Hayes, L.S., and Lloyd, D.B. (1991). Modulation of firefly luciferase stability and impact on studies of gene regulation. Gene 103, 171-177. -Wood, K.V. (1998). The chemistry of bioluminescent reporter assays. Promega Notes 65, 14-20. -Wood, K.V. (1995). Marker proteins for gene expression. Curr Opin Biotechnol 6, 50-58.
Reagents: 50mM Tris acetate, pH 7.5; 10mM Mg acetate; 10uM D-luciferin (Sigma #L9504); 10uM ATP; 0.01% Tween-20; 0.05% BSA; 10nM P. pyralis luciferase (Sigma #L9506) Control compounds used were two known firefly luciferase inhibitors (compounds (2) and (5) in Auld et al., 2010), and DMSO. Assay Summary: Three microliters containing firefly luciferase substrates in buffer (final concentrations: 50mM Tris acetate, pH 7.5, 10mM Mg acetate, 0.01% Tween-20, 0.05% BSA, 10uM D-luciferin, and 10uM ATP) are dispensed into each well of a Greiner white, solid-bottom 1536-well format plate using a flying reagent dispenser (FRD). […]
% is set by controls: 0 for no effect and ±100 for the full control effect; tags give direction and shape of the fitted curve.
Note: nearly all actives have a fitted effect of over 65% in size.

Row | Structure (SMILES) | activity change, negative = inhibition | Potency
1 | O=C(NC[C@H]1C[C@@H]2CCN1C[C@@H]2CN1C[C@@H]2C[C@H](C1)c1cccc(=O)n1C2)Nc1ccccc1 | inactive: -3.76% [at 115 µM] | 
2 | O=C(CN1CCCC1=O)NCc1ccc(F)cc1Cl |  | inconclusive: 50.1 µM [inhibitor, partial curve, poor fit]
3 | COc1ccc2c(c1)C1(CCN(C(=O)Nc3ccc4c(c3)OCO4)C1)C(=O)N2C (configuration not stated) |  | inconclusive: 44.7 µM [inhibitor, partial curve]
4 | N#Cc1cccc(-c2ccc(=O)n3c2[C@@H]2C[C@@H](CN(C(=O)Nc4ccccc4)C2)C3)c1 |  | inconclusive: 70.8 µM [inhibitor, partial curve]
5 | COC[C@H]1CCCN1C[C@H]1CN2CC[C@H]1C[C@@H]2CN | inactive: 1.18% [at 230 µM] | 
6 | CSc1cccc(NC(=O)NC[C@H]2C[C@@H]3CCN2C[C@@H]3CN(C)c2ccccc2)c1 |  | inconclusive: 44.7 µM [inhibitor, partial curve, poor fit]
7 | O=C(Nc1ccc2n(c1=O)C[C@H]1C[C@@H]2CN(C(=O)c2ccccn2)C1)c1ccc(F)cc1 |  | inconclusive: 89.1 µM [inhibitor, partial curve]
8 | COc1cc2c(cc1Oc1ccccc1)NC(=O)C21CCN(c2ncccn2)CC1 | inactive: -14.6% | 
9 | COc1ccc(-n2cc(C3=CCN(CCN4CCOCC4)CC3)cn2)cc1 |  | active: 4.47 µM
10 | O=C(c1ccc2c(c1)OCO2)N1[C@H]2CC[C@@H]1c1cnc(-c3ccccc3)nc1C2 |  | inconclusive: 25.1 µM [inhibitor, full curve]
11 | CC(=O)c1cccc(NC(=O)NC[C@H]2C[C@@H]3CCN2C[C@@H]3c2cc(-c3ccc(F)cc3)nc(C)n2)c1 |  | inconclusive: 100 µM [inhibitor, single point]
12 | O=C1CCC2(CCNCC2)CCN1CC1CC1 | inactive: 0% [at 115 µM] | 
13 | O=C(Cc1c[nH]c2ncc(-c3cccnc3)cc12)N1CCN(Cc2ccccc2)CC1 |  | inconclusive: 44.7 µM [inhibitor, partial curve]
14 | CN(C)Cc1cn(C[C@H]2CC3CCN2C[C@@H]3C(=O)NCc2ccc3c(c2)OCO3)nn1 (some centres not stated) | inactive: -3.84% | 
15 | Cc1nc(-c2ccc(N(C)C)cc2)cc([C@H]2CN3CC[C@H]2C[C@@H]3CNC(=O)c2ccco2)n1 |  | inconclusive: 70.8 µM [inhibitor, partial curve, poor fit]
16 | Cc1cccn2c(CC(=O)N3CCN(C)[C@@H]4CS(=O)(=O)C[C@@H]43)cnc12 |  | inconclusive: 50.1 µM [inhibitor, partial curve]
17 | CC(=O)NC[C@H]1C[C@@H]2CCN1C[C@@H]2c1cc(-c2ccc3ccccc3c2)nn1C |  | inconclusive: 56.2 µM [inhibitor, partial curve]
18 | COc1cc2c(cc1OC1CCCC1)NC(=O)C21CCN(Cc2ccccc2O)CC1 | inactive: -0.239% | 
19 | Cc1nc(-c2ccco2)cc([C@H]2CN3CC[C@H]2C[C@@H]3CNC(=O)C2CC2)n1 | inactive: -2.27% | 
20 | O=C1N(c2ccccn2)C[C@H]2CN(Cc3ccccc3)CCN12 |  | active: 20 µM
21 | O=C(Nc1ccccc1)C1=NO[C@@H]2CN(Cc3ccccn3)C[C@H]12 |  | inconclusive: 100 µM [inhibitor, partial curve, poor fit]
22 | COc1cc2c(cc1OCc1ccccc1)NC(=O)C21CCN(Cc2nccs2)CC1 |  | inconclusive: 70.8 µM [inhibitor, partial curve]
23 | CCC1(N2CCN(C(=O)COc3cccc(Cl)c3)CC2)CCN(S(C)(=O)=O)C1 (configuration not stated) | inactive: -24.4% [at 115 µM] | 

Row | Structure (SMILES) | activity change, negative = inhibition | Potency
24 | COc1ccc(C(=O)N2[C@H]3CC[C@@H]2c2cnc(C)nc2C3)cc1OC | inactive: 7.08% [at 115 µM] | 
25 | CCC(CC)c1cc([C@H]2CN3CC[C@H]2C[C@@H]3COC(=O)Nc2ccc(C(C)(C)C)cc2)nc(-c2ccncc2)n1 |  | inconclusive: 79.4 µM [inhibitor, single point]
26 | O=C(C1CC1)N1[C@H]2CC[C@@H]1c1cnc(-c3ccc(F)cc3)nc1C2 |  | inconclusive: 63.1 µM [inhibitor, partial curve, poor fit]
27 | O=C(NC[C@H]1C[C@@H]2CCN1C[C@@H]2CN1CCCCC1)Nc1ccccc1 | inactive: -11.8% | 
28 | N#CC1(c2ccccc2)CCN(C(=O)c2ccc3nccn3c2)CC1 | inactive: -0.195% [at 115 µM] | 
29 | COc1ccc(-c2cc3c(cn2)CN(C)CCN3)cn1 |  | active: 6.31 µM
30 | O=C(Nc1ccccc1)[C@H]1CN2CCC1C[C@@H]2Cn1cc(CSc2ccccc2)nn1 (some centres not stated) | inactive: 2.15% | 
31 | CCC1(N2CCN(C(=O)COc3ccc(Cl)cc3C)CC2)CCN(C(=O)NC)C1 (configuration not stated) |  | inconclusive: 50.1 µM [inhibitor, partial curve]
32 | Cc1noc(C)c1S(=O)(=O)N1[C@H]2CC[C@@H]1c1cnc(-c3ccc(F)cc3)nc1C2 | inactive: -1.39% [at 115 µM] | 
33 | COc1cc2c(cc1OCc1ccccc1)NC(=O)C21CCN(c2cnccn2)CC1 | inactive: -11.9% | 
34 | Cc1ccc2c(n1)N(C)[C@H](CO)CCN(CCC(C)C)C2 | inactive: -5.09% [at 230 µM] | 
35 | COc1cc2c(cc1OCc1ccccc1)NC(=O)C21CCN(Cc2ccncc2)CC1 | inactive: -4.92% | 
36 | Cc1noc(-c2ccc(N3CC4CC(C3)c3cccc(=O)n3C4)nc2)n1 (configuration not stated) |  | inconclusive: 56.2 µM [inhibitor, partial curve, poor fit]
37 | Cc1nc(-c2ccccc2Br)cc([C@H]2CN3CC[C@H]2C[C@@H]3CNC(=O)Nc2ccccc2)n1 |  | inconclusive: 89.1 µM [inhibitor, single point]
38 | Cc1ncc2c(n1)C[C@@H]1CC[C@H]2N1C(=O)Nc1ccc(C)c(F)c1 |  | inconclusive: 89.1 µM [inhibitor, single point]
39 | Cc1nc(-c2cccs2)cc([C@H]2CN3CC[C@H]2C[C@@H]3COC(=O)Nc2ccc(C(C)C)cc2)n1 |  | inconclusive: 39.8 µM [inhibitor, full curve]
40 | Cc1nc(-c2ccc(N(C)C)cc2)cc([C@H]2CN3CC[C@H]2C[C@@H]3COC(=O)Nc2ccccc2)n1 | inactive: -3.53% [at 115 µM] | 
41 | O=C1NC2(CCCN(Cc3cccnc3)C2)COc2ccccc21 (configuration not stated) | inactive: 4.77% | 
42 | Cc1nc(C)c(C(=O)N2[C@H]3CC[C@@H]2c2cnc(-c4ccc(F)cc4)nc2C3)s1 |  | inconclusive: 22.4 µM [inhibitor, full curve, poor fit]
43 | O=C(C1CCOCC1)N1CCC2(CC1)NCc1ccccc1-n1ccnc12 | inactive: 3.02% [at 115 µM] | 
44 | CC(C)(C)c1ccc(-c2cn(C[C@H]3CC4CCN3C[C@@H]4C(=O)N3CCOCC3)nn2)cc1 (some centres not stated) |  | inconclusive: 50.1 µM [inhibitor, partial curve, poor fit]
45 | O=C(Nc1ccc2n(c1=O)C[C@H]1C[C@@H]2CN(C(=O)c2ccccn2)C1)c1ccccc1 |  | inconclusive: 112 µM [inhibitor, partial curve, poor fit]
46 | Cc1cc(C)n(CCC(=O)N2[C@H]3CC[C@@H]2c2cnc(-c4ccc(F)cc4)nc2C3)n1 | inactive: 5.75% [at 115 µM] | 

Row | Structure (SMILES) | activity change, negative = inhibition | Potency
47 | COc1cc2c(cc1OCC1CC1)NC(=O)C21CCN(C(=O)c2ccccc2)CC1 | inactive: 1.63% | 
48 | Cc1ncc2c(c1CNCC1(O)CNCCOC1)CCNC2 (configuration not stated) | inactive: -2.33% [at 115 µM] | 
49 | CC(C)NC(=O)OC[C@H]1C[C@@H]2CCN1C[C@@H]2c1cc(C2CCCC2)nc(-c2ccncc2)n1 | inactive: -11.3% [at 115 µM] | 
50 | CC(=O)Nc1ccc(S(=O)(=O)NC[C@H]2C[C@@H]3CCN2C[C@@H]3c2cc(-c3ccc(N(C)C)cc3)nc(C)n2)cc1 |  | inconclusive: 50.1 µM [inhibitor, partial curve]
51 | COc1cc2c(cc1OCC1CC1)NC(=O)C21CCN(Cc2cccc(O)c2)CC1 |  | inconclusive: 112 µM [inhibitor, partial curve, poor fit]
52 | Cc1nc(-c2ccco2)cc([C@H]2CN3CC[C@H]2C[C@@H]3CNC(=O)NC2CCCCC2)n1 | inactive: 11.4% | 
53 | COc1cc2c(cc1OCc1ccccc1)NC(=O)C21CCN(c2ccnc(C)n2)CC1 |  | inconclusive: 112 µM [inhibitor, single point]
54 | CN1Cc2ccccc2-n2ccnc2C12CCN(C(=O)C1CCOCC1)CC2 | inactive: 7.71% [at 115 µM] | 
55 | COc1ccccc1-n1cc(C2=CCN(CCOCCO)CC2)cn1 |  | inconclusive: 39.8 µM [inhibitor, partial curve]
56 | Cc1nc(-c2ccc(N(C)C)cc2)cc([C@H]2CN3CC[C@H]2C[C@@H]3COC(=O)NC(C)C)n1 |  | inconclusive: 100 µM [inhibitor, single point]
57 | COc1ccc(C(=O)N2[C@H]3CC[C@@H]2c2cnc(-c4ccccc4)nc2C3)c(OC)c1 | inactive: 4.83% [at 115 µM] | 
58 | Cc1nc(-c2ccc(N(C)C)cc2)cc([C@H]2CN3CC[C@H]2C[C@@H]3COC(=O)Nc2ccc(C(C)C)cc2)n1 |  | inconclusive: 31.6 µM [inhibitor, partial curve, poor fit]
59 | C=C[C@H]1CN2CC[C@H]1C[C@@H]2CNS(=O)(=O)c1ccc2ccccc2c1 | inactive: -1.95% | 
60 | COc1cc2c(cc1OCc1ccncc1)NC(=O)C21CCN(Cc2cccc(O)c2)CC1 | inactive: -14.8% [at 115 µM] | 
61 | COc1ccccc1C(=O)N1[C@H]2CC[C@@H]1c1cnc(-c3ccc(F)cc3)nc1C2 | inactive: -0.681% [at 115 µM] | 
62 | O=C(Nc1ccc2n(c1=O)C[C@H]1C[C@@H]2CN(C(=O)c2ccccn2)C1)c1cccs1 |  | inconclusive: 112 µM [inhibitor, single point]
63 | O=C(CCc1c[nH]c2ccccc12)N1[C@H]2CC[C@@H]1c1cnc(-c3ccc(F)cc3)nc1C2 |  | inconclusive: 56.2 µM [inhibitor, partial curve, poor fit]
64 | c1ccc(Nc2cc3c(cn2)CN(CC2CC2)CCN3)cc1 |  | active: 35.5 µM
65 | CCn1c(CO)nnc1C1CC(NC(=O)c2cnn(Cc3ccccc3)c2)C1 (configuration not stated) | inactive: 5.01% [at 115 µM] | 
66 | COc1cc2c(cc1OCc1ccccc1)N(C(=O)c1ccncc1)CC21CCN(C)CC1 | inactive: 2.76% [at 115 µM] | 
67 | COc1cc2c(cc1Oc1ccccc1)NC(=O)C21CCN(c2ncc(F)cn2)CC1 | inactive: -16.8% | 
